# PubChem BioAssay (Tox21)
# Several values for one entry are separate records, joined by “and”; a condition that tells them apart may be missing. Equal entries are not always repeated. The shares of active, inactive and inconclusive entries below differ from those in the screen. Calls follow the shape of the dose curve; as a rule, active = well fitted inhibition curve with a large enough effect in the signal ratio in the repeat runs (not every such curve was filed as active); inconclusive = weak or mixed curves, or effect the other way; inactive = no such curve, though single readings can be large or run the other way; the % refers to the signal ratio. Potencies beside an inconclusive call are fits to weak or partial responses and may not hold up.
# Target: Bile acid receptor (Homo sapiens) (UniProt Q96RI1)
# Experiment: qHTS assay to identify small molecule antagonists of the farnesoid-X-receptor (FXR) signaling pathway (AID 743217)
# Details: HEK293T FXR-UAS-bla, beta-lactamase ratio, CDCA-stimulated, 16 h; activity change, negative = inhibition: at 62.6 µM (top of the series) unless noted
# Outline: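 Read-out: beta-lactamase FRET fluorescence (LiveBLAzer B/G substrate, 2 h, room temperature) in GeneBLAzer FXR-UAS-bla HEK 293T cells. Compounds were co-dosed with 50 uM chenodeoxycholic acid (final) and incubated 16 h at 37 °C.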
# % is scaled to controls: 0 for no effect and ±100 for the full control effect; potency is read from the fitted curve at half-maximal effect; tags tell the direction and shape of the fitted curve or compound fluorescence and quenching.
# UniProt Q96RI1, sequence (Q96RI1 whole entry, looked up): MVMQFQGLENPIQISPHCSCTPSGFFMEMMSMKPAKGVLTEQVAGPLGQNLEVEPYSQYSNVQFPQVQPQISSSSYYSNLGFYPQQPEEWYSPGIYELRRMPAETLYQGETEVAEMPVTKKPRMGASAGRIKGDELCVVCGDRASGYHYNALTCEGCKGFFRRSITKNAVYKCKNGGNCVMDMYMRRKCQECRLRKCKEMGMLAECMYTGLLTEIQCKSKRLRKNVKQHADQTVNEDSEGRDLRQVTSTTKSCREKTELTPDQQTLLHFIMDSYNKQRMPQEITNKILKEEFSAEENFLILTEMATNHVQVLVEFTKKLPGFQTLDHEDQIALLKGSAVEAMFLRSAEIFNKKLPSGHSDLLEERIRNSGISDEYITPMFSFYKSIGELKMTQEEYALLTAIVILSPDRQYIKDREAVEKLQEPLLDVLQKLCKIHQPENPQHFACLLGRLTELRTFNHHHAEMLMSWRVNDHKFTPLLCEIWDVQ
SMILES,Potency,"activity change, negative = inhibition"
Cc1c(COC(=O)[C@@H]2[C@H](/C=C(\Cl)C(F)(F)F)C2(C)C)cccc1-c1ccccc1,"inconclusive: 17 µM [inhibitor, partial curve] and inconclusive: 12.3 µM",
CN(C)[C@@H]1C(=O)C(C(N)=O)=C(O)[C@@]2(O)C(=O)C3=C(O)c4c(O)ccc(Cl)c4[C@@](C)(O)[C@H]3C[C@@H]12,inconclusive: 50 µM [single point],
COc1ccc(/C(=C/C(=O)N2CCOCC2)c2ccc(Cl)cc2)cc1OC,,inconclusive: -19%
CCN1CCC2(CC1)COc1cc3c(cc12)N(C(=O)c1ccc(-c2ccc(-c4nnc(C)o4)cc2C)cc1)CC3,inconclusive: 50.7 µM,
Cn1cc(C2=C(c3cn(C4CCN(Cc5ccccn5)CC4)c4ccccc34)C(=O)NC2=O)c2ccccc21,"inconclusive: 18.8 µM [rising, partial curve]",
[O]=[Cr](=[O])([OH])[O][Cr](=[O])(=[O])[OH],"inconclusive: 11.1 µM [activator, partial curve] and inconclusive: 61.5 µM [inhibitor, single point]",
N#Cc1c2ccccc2cc2ccccc12,inconclusive: 54.8 µM [fluorescent],
c1ccc2cc3c(cc2c1)-c1cccc2cccc-3c12,"inconclusive: 6.08 µM [fluorescent, full curve]",
CC1(C)[C@H](C(=O)O[C@H](C#N)c2cccc(Oc3ccccc3)c2)[C@@H]1/C=C(\Cl)C(F)(F)F,"inconclusive: 10.2 µM [inhibitor, full curve]",
